From PubChem BioAssay (NCI)
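96-well plates; 48 h exposure; 5 concentrations. Endpoints by linear interpolation between flanking doses. Not reached: highest tested concentration assigned. The concentration for 50% growth inhibition is given as GI50. TGI: concentration producing complete growth inhibition.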

Test system: NCI-H322M lung
Test: DTP human tumour cell line panel, 48 h

SMILES	GI50 [µM]	TGI [µM]
CS(=O)(=O)c1ccc2c(c1)c1c(n2C(=O)c2ccc(Cl)cc2)CCCC1	31.8	> 100
COc1cc(/C=N/Nc2ccnc3cc(Cl)ccc23)cc(OC)c1O	1.72	3.12
